These are yes or no findings as the source states them, for the method shown. For part of these data: In cells and extracts the contact can be indirect. Some results given as binding are weak or reduced against the parent protein; the word gives no strength. For part of these data: Sequences can lack the tags named with a protein.
T1: myc-tagged KCC2b (UniProt Q91V14)
T1 sequence: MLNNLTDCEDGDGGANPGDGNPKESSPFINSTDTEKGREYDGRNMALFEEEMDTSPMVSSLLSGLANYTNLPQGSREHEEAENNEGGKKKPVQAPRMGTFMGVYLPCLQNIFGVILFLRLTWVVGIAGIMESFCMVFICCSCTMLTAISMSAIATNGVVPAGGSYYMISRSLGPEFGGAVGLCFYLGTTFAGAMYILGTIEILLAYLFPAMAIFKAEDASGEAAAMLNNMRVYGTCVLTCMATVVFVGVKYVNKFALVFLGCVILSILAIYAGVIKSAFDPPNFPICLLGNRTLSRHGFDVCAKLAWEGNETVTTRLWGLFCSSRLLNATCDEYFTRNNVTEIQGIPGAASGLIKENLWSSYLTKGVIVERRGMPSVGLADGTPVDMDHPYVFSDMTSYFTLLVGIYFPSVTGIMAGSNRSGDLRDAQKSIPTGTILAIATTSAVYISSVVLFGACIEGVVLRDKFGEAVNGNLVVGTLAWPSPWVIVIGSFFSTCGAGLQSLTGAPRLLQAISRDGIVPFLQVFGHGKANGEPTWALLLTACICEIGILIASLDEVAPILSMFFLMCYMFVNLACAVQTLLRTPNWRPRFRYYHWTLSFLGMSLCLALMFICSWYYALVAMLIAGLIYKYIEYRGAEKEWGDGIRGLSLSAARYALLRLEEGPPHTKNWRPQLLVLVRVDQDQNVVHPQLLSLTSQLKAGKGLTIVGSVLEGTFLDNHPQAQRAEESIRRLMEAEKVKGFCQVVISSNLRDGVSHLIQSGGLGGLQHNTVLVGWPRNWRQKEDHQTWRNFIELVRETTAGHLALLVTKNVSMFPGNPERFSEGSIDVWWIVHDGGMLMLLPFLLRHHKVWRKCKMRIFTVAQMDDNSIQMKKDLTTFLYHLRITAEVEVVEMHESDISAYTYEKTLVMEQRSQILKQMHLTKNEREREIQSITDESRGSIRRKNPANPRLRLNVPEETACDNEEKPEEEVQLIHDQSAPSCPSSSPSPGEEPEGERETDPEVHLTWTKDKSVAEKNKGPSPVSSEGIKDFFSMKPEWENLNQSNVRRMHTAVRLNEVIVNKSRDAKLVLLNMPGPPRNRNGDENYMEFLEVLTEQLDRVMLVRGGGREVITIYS

The chains behind the UniProt entries cited, without tags or fusion partners. Where a name states a change or a piece, a line headed by the entry shows the natural chain unless it says otherwise.
UniProt Q61644: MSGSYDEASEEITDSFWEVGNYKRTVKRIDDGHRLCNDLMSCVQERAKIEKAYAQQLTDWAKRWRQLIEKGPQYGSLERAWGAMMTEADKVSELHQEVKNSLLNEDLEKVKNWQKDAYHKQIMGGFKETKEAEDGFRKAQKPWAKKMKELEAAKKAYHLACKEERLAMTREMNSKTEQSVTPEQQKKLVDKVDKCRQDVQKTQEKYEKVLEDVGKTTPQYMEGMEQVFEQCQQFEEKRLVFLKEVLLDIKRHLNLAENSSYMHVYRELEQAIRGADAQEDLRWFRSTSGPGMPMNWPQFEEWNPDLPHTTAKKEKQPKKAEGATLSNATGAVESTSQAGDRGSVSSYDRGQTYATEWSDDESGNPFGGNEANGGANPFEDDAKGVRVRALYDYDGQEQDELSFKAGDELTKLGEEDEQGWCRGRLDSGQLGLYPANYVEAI
UniProt Q9WVE8: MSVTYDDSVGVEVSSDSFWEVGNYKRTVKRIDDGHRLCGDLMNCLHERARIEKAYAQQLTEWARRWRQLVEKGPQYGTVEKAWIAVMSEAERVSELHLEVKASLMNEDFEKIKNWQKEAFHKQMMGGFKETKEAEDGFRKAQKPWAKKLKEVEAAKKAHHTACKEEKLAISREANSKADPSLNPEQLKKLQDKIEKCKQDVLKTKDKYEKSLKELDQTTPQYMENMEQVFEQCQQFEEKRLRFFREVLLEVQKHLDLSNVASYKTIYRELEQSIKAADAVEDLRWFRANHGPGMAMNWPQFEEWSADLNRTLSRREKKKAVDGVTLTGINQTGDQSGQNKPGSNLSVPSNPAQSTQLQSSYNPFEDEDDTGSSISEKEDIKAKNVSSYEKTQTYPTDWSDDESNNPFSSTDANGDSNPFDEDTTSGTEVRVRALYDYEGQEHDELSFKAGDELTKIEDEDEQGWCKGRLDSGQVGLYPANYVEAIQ

T2: native KCC2b (mouse (endogenous in brain)) (UniProt Q91V14)
T2 sequence: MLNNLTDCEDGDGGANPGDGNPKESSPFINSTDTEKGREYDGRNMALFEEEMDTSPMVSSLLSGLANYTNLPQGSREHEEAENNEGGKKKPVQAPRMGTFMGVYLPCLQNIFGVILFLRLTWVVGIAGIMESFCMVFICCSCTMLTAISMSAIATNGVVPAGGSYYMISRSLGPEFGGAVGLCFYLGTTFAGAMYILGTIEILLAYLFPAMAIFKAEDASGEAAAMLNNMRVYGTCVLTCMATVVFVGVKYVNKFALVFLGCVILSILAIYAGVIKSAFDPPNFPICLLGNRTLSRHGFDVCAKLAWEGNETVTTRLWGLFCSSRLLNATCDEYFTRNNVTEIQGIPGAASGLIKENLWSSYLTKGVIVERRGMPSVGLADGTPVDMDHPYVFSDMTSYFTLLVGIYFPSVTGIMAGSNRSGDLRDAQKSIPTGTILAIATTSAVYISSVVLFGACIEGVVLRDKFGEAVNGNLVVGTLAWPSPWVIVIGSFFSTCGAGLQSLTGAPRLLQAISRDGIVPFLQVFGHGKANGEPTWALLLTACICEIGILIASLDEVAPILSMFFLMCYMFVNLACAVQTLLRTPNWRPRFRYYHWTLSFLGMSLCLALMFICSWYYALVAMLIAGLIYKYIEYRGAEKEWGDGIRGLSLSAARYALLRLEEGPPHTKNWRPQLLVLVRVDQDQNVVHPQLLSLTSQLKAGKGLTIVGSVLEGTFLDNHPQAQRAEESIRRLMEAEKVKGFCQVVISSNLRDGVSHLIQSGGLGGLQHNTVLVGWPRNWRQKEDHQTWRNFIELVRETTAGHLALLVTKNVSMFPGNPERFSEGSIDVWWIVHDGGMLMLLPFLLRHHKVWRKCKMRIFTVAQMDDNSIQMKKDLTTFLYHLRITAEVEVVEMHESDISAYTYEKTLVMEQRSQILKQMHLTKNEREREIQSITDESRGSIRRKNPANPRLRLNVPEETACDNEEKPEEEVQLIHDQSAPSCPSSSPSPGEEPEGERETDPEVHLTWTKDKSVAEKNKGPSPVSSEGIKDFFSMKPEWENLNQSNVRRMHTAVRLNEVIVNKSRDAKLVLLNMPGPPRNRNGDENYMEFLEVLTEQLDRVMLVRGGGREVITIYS


Key:
myc-tagged KCC2b = biological target: T1, myc-tagged KCC2b; assay: co-IP; COS7 cells co-transfected with myc-tagged KCC2b and GFP-tagged PACSIN constructs; lysed in modified RIPA buffer; precipitated with anti-N-terminal KCC2b antibody (4 hr, 4°C); immunoblot
[1] = biological target: T2, native KCC2b (mouse (endogenous in brain)); assay: native gel or EMSA; antibody-shift assay with 2D BN-PAGE: C12E9-solubilised complexes pre-incubated 1 hr with anti-N-terminal KCC2b antibody or chicken IgY; BN-PAGE, then SDS-PAGE and blots for KCC2 and PACSIN1
[2] = biological target: T2, native KCC2b (mouse (endogenous in brain)); assay: co-IP; C12E9-solubilised whole-brain membrane fractions of adult mice; anti-N-terminal KCC2b (control IgY) or anti-PACSIN1 (control IgG) on beads without DMP cross-linking; immunoblot
[3] = biological target: PACSIN1 (PKC and CSNK2A1 substrate in neurons) (mouse (endogenous in brain)) (UniProt Q61644); assay: as above

Row | binding (myc-tagged KCC2b) | Molecule | further results
1 | binds | GFP-tagged PACSIN1 (from UniProt Q61644 1-441) | 
2 | no binding | eGFP-PACSIN1 SH3 domain alone (from UniProt Q61644 382-441) (domain or fragment) | 
3 | binds weakly | GFP-tagged PACSIN2 (from UniProt Q9WVE8 1-486) | 
4 |  | PACSIN1 (PKC and CSNK2A1 substrate in neurons) (from UniProt Q61644 1-441) | binding [1]: binds; binding [2]: binds
5 |  | native KCC2 (K+-Cl- cotransporter KCC2) (protein, UniProt Q91V14 1-1138) MSRRFTVTSLPPAASAASADPESRRHSVADPRRLPREDVKGDGNPKESSPFINSTDTEKGREYDGRNMALFEEEMDTSPMVSSLLSGLANYTNLPQGSREHEEAENNEGGKKKPVQAPRMGTFMGVYLPCLQNIFGVILFLRLTWVVGIAGIMESFCMVFICCSCTMLTAISMSAIATNGVVPAGGSYYMISRSLGPEFGGAVGLCFYLGTTFAGAMYILGTIEILLAYLFPAMAIFKAEDASGEAAAMLNNMRVYGTCVLTCMATVVFVGVKYVNKFALVFLGCVILSILAIYAGVIKSAFDPPNFPICLLGNRTLSRHGFDVCAKLAWEGNETVTTRLWGLFCSSRLLNATCDEYFTRNNVTEIQGIPGAASGLIKENLWSSYLTKGVIVERRGMPSVGLADGTPVDMDHPYVFSDMTSYFTLLVGIYFPSVTGIMAGSNRSGDLRDAQKSIPTGTILAIATTSAVYISSVVLFGACIEGVVLRDKFGEAVNGNLVVGTLAWPSPWVIVIGSFFSTCGAGLQSLTGAPRLLQAISRDGIVPFLQVFGHGKANGEPTWALLLTACICEIGILIASLDEVAPILSMFFLMCYMFVNLACAVQTLLRTPNWRPRFRYYHWTLSFLGMSLCLALMFICSWYYALVAMLIAGLIYKYIEYRGAEKEWGDGIRGLSLSAARYALLRLEEGPPHTKNWRPQLLVLVRVDQDQNVVHPQLLSLTSQLKAGKGLTIVGSVLEGTFLDNHPQAQRAEESIRRLMEAEKVKGFCQVVISSNLRDGVSHLIQSGGLGGLQHNTVLVGWPRNWRQKEDHQTWRNFIELVRETTAGHLALLVTKNVSMFPGNPERFSEGSIDVWWIVHDGGMLMLLPFLLRHHKVWRKCKMRIFTVAQMDDNSIQMKKDLTTFLYHLRITAEVEVVEMHESDISAYTYEKTLVMEQRSQILKQMHLTKNEREREIQSITDESRGSIRRKNPANPRLRLNVPEETACDNEEKPEEEVQLIHDQSAPSCPSSSPSPGEEPEGERETDPEVHLTWTKDKSVAEKNKGPSPVSSEGIKDFFSMKPEWENLNQSNVRRMHTAVRLNEVIVNKSRDAKLVLLNMPGPPRNRNGDENYMEFLEVLTEQLDRVMLVRGGGREVITIYS | binding [3]: binds

From PMC5640428
